Reference: a collection of fitness landscapes (doi:10.1126/science.1257360)
Some of the results follow.

B1: PhoQ; a variant is named by its letters at X, in order, P23837 (parent)
chain: MKKLLRLFFPLSLRVRFLLATAAVVLVLSLAYGMVALIGYSVSFDKTTFRLLRGESNLFYTLAKWENNKLHVELPENIDKQSPTMTLIYDENGQLLWAQRDVPWLMKMIQPDWLKSNGFHEIEADVNDTSLLLSGDHSIQQQLQEVREDDDDAEMTHSVAVNVYPATSRMPKLTIVVVDTIPVELKSSYMVWSWFIYVLSANLLLVIPLLWVAAWWSLRPIEALAKEVRELEEHNRELLNPATTRELTSLVRNLNRLLKSERERYDKYRTTLTDLTHSLKTPLXXLQXXLRSLRSEKMSVSDAEPVMLEQISRISQQIGYYLHRASMRGGTLLSRELHPVAPLLDNLTSALNKVYQRKGVNISLDISPEISFVGEQNDFVEVMGNVLDNACKYCLEFVEISARQTDEHLYIVVEDDGPGIPLSKREVIFDRGQRVDTLRPGQGVGLAVAREITEQYEGKIVAGESMLGGARMEVIFGRQHSAPKDE

Variants of: B1
Experiment: enrichment ratio after two sorts for PhoP signalling (ratio (wild type AVST 3.29)); higher = more functional
Conditions: with PhoP (E. coli)

Row | Variant | enrichment ratio
1 | YQMY | ≤ 0.25
2 | IMRW | ≤ 0.25
3 | KCDH | ≤ 0.25
4 | WNFK | ≤ 0.25
5 | NFKY | ≤ 0.25
6 | YWPL | ≤ 0.25
7 | YRYL | ≤ 0.25
8 | QPPQ | ≤ 0.25
9 | DPKW | ≤ 0.25
10 | GCVM | 3.08
11 | QIVN | ≤ 0.25
12 | YYRP | ≤ 0.25
13 | ISEG | 0.253
14 | WFTG | ≤ 0.25
15 | YGYW | ≤ 0.25
16 | TCIQ | ≤ 0.25
17 | SCDD | ≤ 0.25
18 | RECI | ≤ 0.25
19 | SYWD | ≤ 0.25
20 | HDLQ | ≤ 0.25
21 | EYSA | ≤ 0.25
22 | WSSG | ≤ 0.25
23 | HSVH | ≤ 0.25
24 | MKQR | ≤ 0.25
25 | WFSA | ≤ 0.25

Row | Variant | enrichment ratio
26 | NFMN | ≤ 0.25
27 | TKSG | 1.03
28 | FEVE | ≤ 0.25
29 | EFGV | ≤ 0.25
30 | AKSC | 23.2
31 | GDPD | ≤ 0.25
32 | VWYI | ≤ 0.25
33 | KPGR | ≤ 0.25
34 | RQHS | ≤ 0.25
35 | NNYN | ≤ 0.25
36 | YKHM | ≤ 0.25
37 | HEAQ | ≤ 0.25
38 | IDQF | ≤ 0.25
39 | ALDL | ≤ 0.25
40 | AGRC | ≤ 0.25
41 | CIMV | 12.9
42 | NMLT | ≤ 0.25
43 | GQKH | ≤ 0.25
44 | WGDL | ≤ 0.25
45 | QSWT | 6.97
46 | LFYW | ≤ 0.25
47 | YDSH | ≤ 0.25
48 | TYSQ | 2.49
49 | LKTQ | ≤ 0.25
50 | GENP | ≤ 0.25

Row | Variant | enrichment ratio
51 | SLEM | ≤ 0.25
52 | TNDK | ≤ 0.25
53 | LHLI | ≤ 0.25
54 | WATP | ≤ 0.25
55 | RNAA | ≤ 0.25
56 | DEFS | ≤ 0.25
57 | GYAS | ≤ 0.25
58 | TPSD | ≤ 0.25
59 | YDAM | ≤ 0.25
60 | FGCD | ≤ 0.25
61 | GMHD | ≤ 0.25
62 | RFWD | ≤ 0.25
63 | ALGN | ≤ 0.25
64 | KTDW | ≤ 0.25
65 | SIMQ | 33.3
66 | DWLY | ≤ 0.25
67 | FRGM | ≤ 0.25
68 | DVNN | ≤ 0.25
69 | KYAE | ≤ 0.25
70 | NKFV | ≤ 0.25
71 | ADAV | 5.88
72 | ATIS | 7.74
73 | WSHC | ≤ 0.25
74 | GPIN | ≤ 0.25
75 | VVAH | ≤ 0.25

Row | Variant | enrichment ratio
76 | DFWK | ≤ 0.25
77 | KYQE | ≤ 0.25
78 | RGKI | ≤ 0.25
79 | SSCF | 9.17
80 | MSMV | 12.7
81 | INMI | 4.25
82 | WQME | ≤ 0.25
83 | VFCE | ≤ 0.25
84 | IFQT | 1.13
85 | SMMM | 1.81
86 | NIMD | ≤ 0.25
87 | YYYG | ≤ 0.25
88 | RACM | ≤ 0.25
89 | HKWG | ≤ 0.25
90 | SWSV | ≤ 0.25
91 | INPQ | ≤ 0.25
92 | KHAN | ≤ 0.25
93 | ENSN | ≤ 0.25
94 | HPAS | ≤ 0.25
95 | VQSA | ≤ 0.25
96 | RMFP | ≤ 0.25
97 | PQHM | ≤ 0.25
98 | YELW | ≤ 0.25
99 | LSQM | ≤ 0.25
100 | ITNI | ≤ 0.25

Row | Variant | enrichment ratio
101 | RRND | ≤ 0.25
102 | WYLP | ≤ 0.25
103 | AESC | 32.1
104 | VIYR | ≤ 0.25
105 | ICLM | 10.6
106 | SVGP | ≤ 0.25
107 | HNWF | ≤ 0.25
108 | SLSD | ≤ 0.25
109 | VFSS | ≤ 0.25
110 | KNSA | ≤ 0.25
111 | IANQ | ≤ 0.25
112 | MQWR | ≤ 0.25
113 | YNSI | 0.32
114 | GPAS | ≤ 0.25
115 | YARM | ≤ 0.25
116 | LECF | ≤ 0.25
117 | PKCF | ≤ 0.25
118 | RHPH | ≤ 0.25
119 | TEYK | 0.256
120 | MTRQ | ≤ 0.25
121 | TMVF | ≤ 0.25
122 | TGWS | 10.5
123 | YRIR | ≤ 0.25
124 | LWPQ | ≤ 0.25
125 | DHKC | ≤ 0.25

Row | Variant | enrichment ratio
126 | ARPK | ≤ 0.25
127 | SRAI | ≤ 0.25
128 | RGWI | ≤ 0.25
129 | VIYV | ≤ 0.25
130 | ALPH | ≤ 0.25
131 | QHSI | ≤ 0.25
132 | SPAC | ≤ 0.25
133 | HNTL | 3.09
134 | PMLT | ≤ 0.25
135 | DFKL | ≤ 0.25
136 | EGRH | ≤ 0.25
137 | GAPV | ≤ 0.25
138 | MQRM | ≤ 0.25
139 | ADDA | ≤ 0.25
140 | KAHG | ≤ 0.25
141 | KKQH | ≤ 0.25
142 | ESFA | ≤ 0.25
143 | SRND | ≤ 0.25
144 | KPWL | ≤ 0.25
145 | SWYE | ≤ 0.25
146 | NWYF | ≤ 0.25
147 | VTHL | ≤ 0.25
148 | EQIE | ≤ 0.25
149 | FEIE | ≤ 0.25
150 | KFEW | ≤ 0.25

Row | Variant | enrichment ratio
151 | PSMY | ≤ 0.25
152 | DFAE | ≤ 0.25
153 | NHSS | ≤ 0.25
154 | RLIE | ≤ 0.25
155 | LEMW | ≤ 0.25
156 | QMDR | ≤ 0.25
157 | GRNI | ≤ 0.25
158 | WSCL | ≤ 0.25
159 | PGDK | ≤ 0.25
160 | VQKG | ≤ 0.25
161 | AGPV | ≤ 0.25
162 | RMRV | ≤ 0.25
163 | PYHP | ≤ 0.25
164 | NFSI | ≤ 0.25
165 | MVWY | ≤ 0.25
166 | PFPI | ≤ 0.25
167 | RNQH | ≤ 0.25
168 | TMSS | 9.06
169 | RKPV | ≤ 0.25
170 | DSSS | ≤ 0.25
171 | GQMI | ≤ 0.25
172 | IGLN | ≤ 0.25
173 | HDRA | ≤ 0.25
174 | MHDQ | ≤ 0.25
175 | YNEA | ≤ 0.25

Row | Variant | enrichment ratio
176 | TPYT | ≤ 0.25
177 | LYLD | ≤ 0.25
178 | GWRE | ≤ 0.25
179 | ECHM | ≤ 0.25
180 | MNTV | 12.2
181 | TTSK | 2.9
182 | IETT | ≤ 0.25
183 | MMTG | ≤ 0.25
184 | QHRL | ≤ 0.25
185 | PGIT | ≤ 0.25
186 | WKVM | ≤ 0.25
187 | TWYL | ≤ 0.25
188 | GTKP | ≤ 0.25
189 | HHVA | ≤ 0.25
190 | NATL | ≤ 0.25
191 | HFKK | ≤ 0.25
192 | EENS | ≤ 0.25
193 | MVLN | 0.464
194 | QWSQ | ≤ 0.25
195 | FPMK | ≤ 0.25
